Source: the RNAGym collection of RNA variant scans (doi:10.1093/nar/gkz1192)
The source gives no read counts; variants with many changes may rest on few reads.

B1: CPEB3 Ribozyme (parent)
chain: UAACAGGGGGCCACAGCAGAAGCGUUCACGUCGCAGCCCCUGUCAGAUUCUGGUGAAUCUGCGAAUUCUGCUGUAUAUCUC

Variants of: B1
Assay: self-cleavage, relative activity (ratio to wild type); higher = more cleavage; in vitro, sequencing
Outline: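 Libraries of CPEB3 self-cleaving ribozyme mutants came from rounds of error-prone PCR and carried barcodes, which DNA sequencing matched to variants. In vitro transcription used T7 RNA polymerase at 37°C for 5 hours, with a further 15 min in DNase I before EDTA stopped the reaction; the ribozymes cleaved during both steps. The RNA was reverse transcribed with template switching and sequenced on Illumina. Relative activity is the cleaved/total read fraction of a variant divided by that of the unmutated ribozyme, averaged over three batches with at least 5 reads.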
With A3G A20U U25C A45G A77U the self-cleavage was 0.1.
Work on A3G A20U U31G A65G U69C A77U yielded a self-cleavage of 0.08.
Variant A3G A20U U43C U76G has a self-cleavage of 0.06.
With A3G A20U U67C the self-cleavage was 0.13.
A3G A20U U69A gave a self-cleavage of 0.21.
With A3G A21C U31C C32U U48C the self-cleavage was 0.11.
With A3G A21C U41G U48C U54A U60C the self-cleavage was 0.
In the case of A3G A21C U48C, the self-cleavage is reported as 0.6.
A3G A21C U67C U78C showed a self-cleavage of 0.07.
Variant A3G A21G A35G U60A A64U U72C has a self-cleavage of 0.47.
A3G A21G A35U gave a self-cleavage of 0.42.
A3G A21G A35U A56U U67C U76C showed a self-cleavage of 0.09.
For A3G A21G A45G U80A, the self-cleavage was 0.49.
A3G A21G A47G showed a self-cleavage of 0.6.
A3G A21G A56U gave a self-cleavage of 0.29.
With A3G A21G A57U U60A A64G A77U the self-cleavage was 0.1.
In the case of A3G A21G A64G U78A, the self-cleavage is reported as 0.54.
In the case of A3G A21G A65U U67C, the self-cleavage is reported as 0.26.
Work on A3G A21G A77G U78C yielded a self-cleavage of 0.35.
For A3G A21G C29U U54C G73U, the self-cleavage was 0.5.
Work on A3G A21G C32U yielded a self-cleavage of 0.14.
With A3G A21G C62U the self-cleavage was 0.38.
Work on A3G A21G G30U U58C yielded a self-cleavage of 0.07.
A3G A21G U25C C34U U49C C50A gave a self-cleavage of 0.09.
With A3G A21G U26A U43A U54C the self-cleavage was 0.09.
Work on A3G A21G U41A U51A G63A A64G yielded a self-cleavage of 0.07.
A3G A21G U41C U60G A64U gave a self-cleavage of 0.11.
With A3G A21G U43C G53A U54C U58C the self-cleavage was 0.1.
With A3G A21G U49C U51C U54C A56U A64U the self-cleavage was 0.61.
A3G A21G U49C U54C gave a self-cleavage of 0.31.
A3G A21G U51C U60A G63A U74C gave a self-cleavage of 0.28.
A3G A21G U67C U69C gave a self-cleavage of 0.29.
With A3G A21G U76A the self-cleavage was 0.91.
Work on A3G A21U A35G yielded a self-cleavage of 1.15.
A3G A21U A35G A45G U51G gave a self-cleavage of 1.15.
Work on A3G A21U A35U U49A U54C A64G yielded a self-cleavage of 0.06.
With A3G A21U A45G U72A U78C the self-cleavage was 0.05.
A3G A21U U31C C40A A64G showed a self-cleavage of 0.61.
A3G A21U U41A U67C U78A gave a self-cleavage of 0.03.
In the case of A3G A28C U31C U66C, the self-cleavage is reported as 0.48.
For A3G A28C U48G A57G, the self-cleavage was 0.39.
Work on A3G A28G A35U U41A A75U yielded a self-cleavage of 0.63.
Work on A3G A28G A47G C68A yielded a self-cleavage of 0.34.
In the case of A3G A28G C29G A56U A65G, the self-cleavage is reported as 0.12.
Variant A3G A28G C32A U41C has a self-cleavage of 0.16.
In the case of A3G A28G C44G A45G U66C U78A, the self-cleavage is reported as 0.04.
With A3G A28G G33C U54C the self-cleavage was 0.12.
A3G A28G G55C U69C gave a self-cleavage of 0.13.
Variant A3G A28G U31C U49A A56G A57U has a self-cleavage of 0.3.
For A3G A28G U58G U78C, the self-cleavage was 0.35.
A3G A28G U60C showed a self-cleavage of 0.43.
With A3G A28G U67C the self-cleavage was 0.24.
A3G A28U A35G U58A C68A gave a self-cleavage of 0.47.
For A3G A28U C34U C62U U67C, the self-cleavage was 0.15.
A3G A28U C44U U66A gave a self-cleavage of 0.21.
For A3G A28U G46A U76C U78C, the self-cleavage was 0.27.
A3G A28U U41A U43A C62U showed a self-cleavage of 0.15.
For A3G A28U U41A U48G A56U, the self-cleavage was 0.11.
A3G A28U U48C U58A U72A gave a self-cleavage of 0.12.
Variant A3G A28U U51A G52C G63U A77G has a self-cleavage of 1.04.
A3G A28U U72C gave a self-cleavage of 0.73.
In the case of A3G A35G A45G U76C U80C, the self-cleavage is reported as 1.22.
Variant A3G A35G A47G U60C has a self-cleavage of 0.47.
For A3G A35G A75C, the self-cleavage was 1.11.
Variant A3G A35G G36U A45U U51A U69C has a self-cleavage of 0.16.
For A3G A35G G46U, the self-cleavage was 0.88.
In the case of A3G A35G G61C, the self-cleavage is reported as 1.02.
A3G A35G U41A A45U A65G gave a self-cleavage of 0.19.
A3G A35G U41C U43C gave a self-cleavage of 0.98.
Work on A3G A35G U43C U67C A75U yielded a self-cleavage of 0.21.
For A3G A35G U48C U76A, the self-cleavage was 1.26.
With A3G A35G U72C the self-cleavage was 1.25.
With A3G A35U A45C U69A A75U U80C the self-cleavage was 0.11.
In the case of A3G A35U A56U U76A U78C, the self-cleavage is reported as 0.77.
Work on A3G A35U A57G U66A yielded a self-cleavage of 0.1.
With A3G A35U A65G U72C the self-cleavage was 0.18.
For A3G A35U A75U, the self-cleavage was 0.85.
A3G A35U C38U A77G gave a self-cleavage of 0.23.
Work on A3G A35U C39U U43C yielded a self-cleavage of 0.14.
With A3G A35U C40U G46A the self-cleavage was 0.04.
With A3G A35U G42A A75U the self-cleavage was 0.23.
For A3G A35U G52C, the self-cleavage was 0.68.
In the case of A3G A35U G53U A56G A65G, the self-cleavage is reported as 0.1.
